Results reported in PubChem BioAssay AID1477 (National Center for Advancing Translational Sciences (NCATS), 2009).
Hit rate of the full screen: of about 230,000 compounds, fewer than 10 were called active. Inconclusive results, whose numbers are uncertain, are shown with a selection of clear calls. Calls come from the whole dose curve; as a rule, active = well fitted curve in the direction sought with a large enough effect; inconclusive = small, poorly fitted or top-dose-only effect, or effect the other way, or another doubt; inactive = no such curve, though single readings can be large or run the other way. Potencies of inconclusive entries are left out as doubtful fits.

Biological target: Runt-related transcription factor 1 (Homo sapiens) + Core-binding factor subunit beta (Homo sapiens) (UniProt Q01196+Q13951)
Experiment: qHTS Assay for Compounds Blocking the Interaction Between CBF-beta and RUNX1 for the Treatment of Acute Myeloid Leukemia; for activity, negative = inhibition: % of control where 0% means no effect
Conditions: AlphaScreen CBFb-His/RUNX1-biotin binding, biochemical; activity, negative = inhibition: at 59.8 µM (top of the series) unless noted
Method in brief: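 AlphaScreen proximity signal reports loss of binding between His-tagged CBF-beta and biotin-labelled RUNX1, each at 30 nM. Proteins are pre-associated for 20 minutes, compounds added for 15 minutes, then beads for 90 minutes, all at ambient temperature.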

Chain of UniProt Q01196 (Q01196 whole entry, looked up): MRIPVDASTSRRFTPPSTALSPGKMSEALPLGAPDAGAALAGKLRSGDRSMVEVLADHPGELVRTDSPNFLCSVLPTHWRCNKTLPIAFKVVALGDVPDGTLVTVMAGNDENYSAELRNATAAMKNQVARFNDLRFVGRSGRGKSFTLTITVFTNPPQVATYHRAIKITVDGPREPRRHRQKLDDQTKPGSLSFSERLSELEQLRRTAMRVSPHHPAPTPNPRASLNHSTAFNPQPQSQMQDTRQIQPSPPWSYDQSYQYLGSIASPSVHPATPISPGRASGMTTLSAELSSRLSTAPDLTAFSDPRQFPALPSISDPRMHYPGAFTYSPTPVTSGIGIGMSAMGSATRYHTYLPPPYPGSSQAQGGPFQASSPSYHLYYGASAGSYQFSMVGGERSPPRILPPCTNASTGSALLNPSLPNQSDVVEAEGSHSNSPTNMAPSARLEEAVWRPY
Chain of UniProt Q01196 (Q13951 whole entry, looked up): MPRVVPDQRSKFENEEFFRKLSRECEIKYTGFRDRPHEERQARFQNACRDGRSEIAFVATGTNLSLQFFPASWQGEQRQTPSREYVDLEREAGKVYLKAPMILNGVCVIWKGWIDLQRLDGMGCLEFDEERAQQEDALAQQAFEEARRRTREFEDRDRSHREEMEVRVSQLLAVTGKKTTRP

| SMILES | Potency | activity, negative = inhibition |
| --- | --- | --- |
| O=C(N/N=C/c1cccc([N+](=O)[O-])c1)c1cc(-c2ccc3c(c2)OCO3)n[nH]1 | inconclusive [activator, single point] | – |
| COc1cc(CCC(C)=O)ccc1OC(=O)c1c(F)cccc1Cl | inconclusive [activator, partial curve] | – |
| O=c1cc(O)cc(/C=C/c2ccc(O)c(O)c2)o1 | inconclusive [inhibitor, partial curve] | – |
| O=C(O)c1ccc2c(c1)OCCO2 | inactive | – |
| CC1(OC(=O)CCc2ccccc2)C(=O)C=C2C=C(c3ccc(C#N)cc3)N(Cc3ccccc3)C=C2C1=O (stereo not given) | inconclusive [inhibitor, single point] | – |
| O=C1C(Cl)=C(NCCN2CCOCC2)C(=O)c2ncccc21 | inconclusive [inhibitor, partial curve] | – |
| COC(=O)[C@@H]1C[C@@]2(O)[C@H](O)[C@H](O)[C@H](O)C[C@H]2N1Cc1cc(F)ccc1F | inconclusive [activator, partial curve, poor fit] | – |
| COc1ccc(CCNC(=O)c2c(C)noc2C)cc1 | inactive | – |
| O=C(CCC(=O)OCC(=O)c1cccc([N+](=O)[O-])c1)NC1CCCCC1 | inactive | – |
| O=C(Nc1ccc(-n2nncc2-c2ccco2)cc1)c1cc2ccccc2oc1=O | inconclusive [activator, partial curve] | – |
| COc1ccc(C2=NNC(=Nc3cc(S(=O)(=O)N(C)C)ccc3C)SC2)c(OC)c1 | inconclusive [inhibitor, partial curve] | – |
| Cc1ccc(Nc2c(-c3ccccc3)nc3cnccn23)cc1 | inactive | – |
| Cc1nc(CNC(=O)CC2C(=O)NCCN2Cc2cccc(Oc3ccccc3)c2)cs1 (stereo not given) | inconclusive [activator, full curve, poor fit] | – |
| O=S(=O)(NCCCCCCc1ccccc1)c1cccc2c(Cl)cccc12 | inconclusive [activator, partial curve] | – |
| O=C(N/N=C/c1ccncc1)c1cccc(S(=O)(=O)Nc2ccc(Cl)cc2)c1 | inconclusive [activator, full curve, poor fit] | – |
| Cc1cc2oc3c(c(=O)c2cc1C)C(c1ccc(C(C)C)cc1)N(CCCN1CCOCC1)C3=O (stereo not given) | – | inactive: 4.37% [at 2.36 µM] |
| Cc1ccc2c(c1)CCCN2C(=O)Nc1ccc2c(c1)OCO2 | inactive | – |
| O=C(O)CCCNC(=O)/C=C/c1ccco1 | inconclusive [inhibitor, full curve] | – |
| CCc1nnc(NS(=O)(=O)c2ccc(N/C=C\C(=O)c3ccc4ccccc4c3)cc2)s1 | inconclusive [inhibitor, single point] | – |
| CC1=CN2C(=N)/C(=C/c3ccc([N+](=O)[O-])o3)C(=O)N=C2S1 | inconclusive [inhibitor, single point] | – |
| COc1ccc(CCc2nnc(CCC(=O)N(C)Cc3ccnc4ccccc34)o2)cc1 | inactive | – |
| Oc1ccc(CN2CCCc3ccccc32)c2cccnc12 | inconclusive [inhibitor, single point] | – |
| COc1ccc(N/N=C(/C(C)=O)N2CCCc3ccccc32)cc1 | inconclusive [inhibitor, single point] | – |
| COc1cc(OC)cc(-c2ncc3ccccn23)c1 | inconclusive [inhibitor, single point] | – |

| SMILES | Potency | activity, negative = inhibition |
| --- | --- | --- |
| CN(C)c1ccnc2sc(C(=O)c3ccccc3)c(N)c12 | inconclusive [activator, single point] | – |
| O=C(CSC1=NNC(c2ccccn2)S1)Nc1ccccc1 (stereo not given) | inconclusive [inhibitor, full curve] | – |
| CCCCC(=O)Nc1ccc(C(=O)NNC(=S)NC(=O)c2cccs2)cc1 | inconclusive [inhibitor, single point] | – |
| Cc1ccc(-c2cc3nc(-c4ccccc4)cc(N)n3n2)cc1 | inactive | – |
| CC(C)(CO)CNC(=O)c1ccc(OC2CCN(C(=O)C3CC3)CC2)cc1 | inactive | – |
| O=S(=O)(c1ccc(Cl)s1)N1CCc2ccccc2C1 | inactive | – |
| O=C(CCS(=O)(=O)Cc1ccccc1)Nc1nc2c(s1)CCCC2 | inactive | – |
| N[C@@H](CSS(=O)(=O)O)C(=O)O | inconclusive [inhibitor, full curve] | – |
| Cc1cc(C)cc(C(=O)NCC(=O)OCC(=O)N2c3ccccc3NC(=O)C2(C)C)c1 | inconclusive [inhibitor, full curve] | – |
| N#Cc1c(-c2ccccc2)c(-c2ccccc2)nn(CC(=O)NNC(=O)Nc2ccccc2)c1=O | inconclusive [inhibitor, full curve, poor fit] | – |
| Cc1cccc(C)c1-n1cccc1/C=C1\SC(=S)N(c2cccc(C(=O)O)c2)C1=O | inactive | – |
| COc1ccc(N2CCN(S(=O)(=O)c3ccc4c(c3)CCCC4)CC2)c([N+](=O)[O-])c1 | inconclusive [inhibitor, partial curve] | – |
| CC(/C=N/NC(=O)c1ccccn1)=C\c1ccco1 | inconclusive [inhibitor, single point] | – |
| Cc1ccc(NCCC(=O)c2cccs2)cc1C | inactive | – |
| CNc1ccccc(-c2ccc3cc4c(cc3n2)OCO4)c1=O | inconclusive [inhibitor, single point] | – |
| Cc1nc(-c2ccccc2)cn2c1nc1ccccc12 | inconclusive [activator, single point] | – |
| Nc1c(C(=O)NCCN2CCOCC2)c2nc3ccccc3nc2n1CCc1ccccc1 | inconclusive [activator, partial curve] | – |
| COCCNC(=O)CC(NS(=O)(=O)c1ccc(NC(C)=O)cc1)C(C)C (stereo not given) | inactive | – |
| Cc1ccc(OC(=O)c2cccc(S(=O)(=O)N(C)C)c2)c(-n2nc3ccccc3n2)c1 | inconclusive [activator, single point] | – |
| Cc1ccc(Cl)cc1N1CCN(C(=O)Cc2ccc(-n3c(=O)[nH]c4ccsc4c3=O)cc2)CC1 | inconclusive [inhibitor, single point] | – |
| O=C(CNCc1ccccc1Cl)Nc1ccccc1N1CCCCC1 | inactive | – |
| CC1CN(c2ccc(Cl)nn2)CC(C)O1 (stereo not given) | inconclusive [activator, partial curve, poor fit] | – |
| Clc1ccc(OCc2cc(-c3ccccc3)no2)c(Cl)c1 | inconclusive [activator, partial curve] | – |
| O=C(O)CCCCCCCCCCCc1ccccc1 | inconclusive [activator, single point] | – |

| SMILES | Potency | activity, negative = inhibition |
| --- | --- | --- |
| COc1ccccc1OCCCOc1c(C)cc(C)cc1Br | inconclusive [activator, single point] | – |
| O=[N+]([O-])c1cccc(CN2CCN(Cc3ccc(Cl)cc3)CC2)c1 | inactive | – |
| CCCCN1C(=O)C2(NNc3ccccc3O2)c2ccccc21 (stereo not given) | inconclusive [inhibitor, partial curve] | – |
| Cc1nnc2ccc(N3CCCC3)nn12 | inconclusive [inhibitor, single point] | – |
| COc1ccccc1NS(=O)(=O)c1ccc(O)c(C(=O)OCC(=O)N2CCc3ccccc32)c1 | inconclusive [inhibitor, single point] | – |
| Cc1ccc2nc(C)cc(C(=O)OCC(=O)c3ccc(Cl)c([N+](=O)[O-])c3)c2c1 | inactive | – |
| Cc1ccc(N2CCN(C(=S)c3ccc(N(C)C)cc3)CC2)cc1 | inconclusive [inhibitor, single point] | – |
| COc1ccc(/C=N/NC(=O)c2ccccc2O)cc1Cn1nnc2ccccc21 | inactive | – |
| Cn1cccc1/C=C1/C(=O)NC(=O)N(Cc2ccc(F)cc2)C1=O | inconclusive [inhibitor, partial curve] | – |
| CCN(CC)S(=O)(=O)c1cccc(C(=O)N/N=C/c2ccc(O)c(O)c2O)c1 | inconclusive [inhibitor, full curve] | – |
| COc1ccc(C(=O)NNC(=S)NC(=O)C(C)(C)C)cc1 | inconclusive [inhibitor, single point] | – |
| CC1=C(C(=O)Nc2ccccc2)C(c2sccc2C)n2nnnc2N1 (stereo not given) | inactive | – |
| CCOc1ccc2nc(NC(=O)CC3Oc4ccccc4NC3=O)sc2c1 (stereo not given) | inactive | – |
| COc1ccc(OCC(=O)Nc2ccc(S(=O)(=O)N3CCOCC3)cc2)cc1 | inconclusive [inhibitor, single point] | – |
| Cc1ccc(C2=N/C(=C/c3cccs3)C(=O)N2Nc2ccccc2)cc1 | inconclusive [inhibitor, single point] | – |
| O=C(NCCc1ccccc1)C(=O)N/N=C/c1ccc2c(c1)OCO2 | inactive | – |
| CCCc1cc(C(=O)Nc2sc(C)c(C)c2C(=O)OCC)no1 | inactive | – |
| CCOc1ccccc1OCCOCCOc1c(Cl)cccc1Cl | inconclusive [activator, partial curve] | – |
| Cc1cccc(OCc2nc(-c3ccc(Br)o3)no2)c1 | inconclusive [activator, single point] | – |
| O=C(Oc1c(CN2CCOCC2)cc(Cl)c2cccnc12)c1ccccc1F | inconclusive [inhibitor, partial curve, poor fit] | – |
| O=C(c1ccc(S(=O)(=O)c2ccccc2Cl)c([N+](=O)[O-])c1)N1CCN(Cc2ccccc2)CC1 | inconclusive [inhibitor, partial curve] | – |
| CCOc1ccccc1OCCOc1ccccc1CC | inconclusive [activator, single point] | – |
